{"source": "PubChem BioAssay (NCI)", "assay_in_all_cases": "growth of human tumour cells (NCI), 48 h", "key": {"HCC-2998 colon": {"system": "HCC-2998 colon"}, "SF-268 CNS": {"system": "SF-268 CNS"}, "NCI/ADR-RES ovarian": {"system": "NCI/ADR-RES ovarian"}, "LOX IMVI melanoma": {"system": "LOX IMVI melanoma"}, "T-47D breast": {"system": "T-47D breast"}, "K-562 leukemia": {"system": "K-562 leukemia"}, "NCI-H460 lung": {"system": "NCI-H460 lung"}, "PC-3 prostate": {"system": "PC-3 prostate"}, "HL-60(TB) leukemia": {"system": "HL-60(TB) leukemia"}, "SW-620 colon": {"system": "SW-620 colon"}, "SK-OV-3 ovarian": {"system": "SK-OV-3 ovarian"}, "OVCAR-5 ovarian": {"system": "OVCAR-5 ovarian"}, "ACHN renal": {"system": "ACHN renal"}, "CAKI-1 renal": {"system": "CAKI-1 renal"}, "A498 renal": {"system": "A498 renal"}, "UACC-62 melanoma": {"system": "UACC-62 melanoma"}, "RPMI-8226 leukemia": {"system": "RPMI-8226 leukemia"}, "MDA-MB-231 breast": {"system": "MDA-MB-231 breast"}, "NCI-H23 lung": {"system": "NCI-H23 lung"}, "KM12 colon": {"system": "KM12 colon"}, "MCF7 breast": {"system": "MCF7 breast"}, "SR leukemia": {"system": "SR leukemia"}, "HOP-92 NSCLC": {"system": "HOP-92 NSCLC"}, "COLO 205 colon": {"system": "COLO 205 colon"}, "SK-MEL-2 melanoma": {"system": "SK-MEL-2 melanoma"}, "HOP-62 NSCLC": {"system": "HOP-62 NSCLC"}, "TK-10 renal": {"system": "TK-10 renal"}, "SF-539 CNS": {"system": "SF-539 CNS"}, "786-0 renal": {"system": "786-0 renal"}, "OVCAR-4 ovarian": {"system": "OVCAR-4 ovarian"}, "MDA-MB-435": {"system": "MDA-MB-435"}, "CCRF-CEM leukemia": {"system": "CCRF-CEM leukemia"}, "M14 melanoma": {"system": "M14 melanoma"}, "SF-295 CNS": {"system": "SF-295 CNS"}, "OVCAR-3 ovarian": {"system": "OVCAR-3 ovarian"}, "MOLT-4 leukemia": {"system": "MOLT-4 leukemia"}, "HCT-15 colon": {"system": "HCT-15 colon"}, "UO-31 renal": {"system": "UO-31 renal"}, "SK-MEL-28 melanoma": {"system": "SK-MEL-28 melanoma"}, "DU-145 prostate": {"system": "DU-145 prostate"}, "RXF 393 renal": {"system": "RXF 393 renal"}, "SNB-75 CNS": {"system": "SNB-75 CNS"}, "A549 NSCLC": {"system": "A549 NSCLC"}, "HS 578T breast": {"system": "HS 578T breast"}, "HCT-116 colon": {"system": "HCT-116 colon"}, "SK-MEL-5 melanoma": {"system": "SK-MEL-5 melanoma"}, "U251 CNS": {"system": "U251 CNS"}}, "note": "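Cultured in 96-well plates, cells were exposed to test compound for 48 hours across five concentrations. TGI: total growth inhibition.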"}
{"smiles": "O=C1Cc2c([nH]c3ccc(C(F)(F)F)cc23)-c2ccccc2N1", "values": [{"measurement": "TGI", "setting": "HCC-2998 colon", "result": "> 100", "unit": "µM"}, {"measurement": "TGI", "setting": "SF-268 CNS", "result": "> 100", "unit": "µM"}, {"measurement": "TGI", "setting": "NCI/ADR-RES ovarian", "result": "> 100", "unit": "µM"}, {"measurement": "TGI", "setting": "LOX IMVI melanoma", "result": "> 100", "unit": "µM"}, {"measurement": "TGI", "setting": "T-47D breast", "result": "> 100", "unit": "µM"}, {"measurement": "TGI", "setting": "K-562 leukemia", "result": "> 100", "unit": "µM"}, {"measurement": "TGI", "setting": "NCI-H460 lung", "result": "> 100", "unit": "µM"}, {"measurement": "TGI", "setting": "PC-3 prostate", "result": "> 100", "unit": "µM"}, {"measurement": "TGI", "setting": "HL-60(TB) leukemia", "result": "> 100", "unit": "µM"}, {"measurement": "TGI", "setting": "SW-620 colon", "result": "> 100", "unit": "µM"}, {"measurement": "TGI", "setting": "SK-OV-3 ovarian", "result": "> 100", "unit": "µM"}, {"measurement": "TGI", "setting": "OVCAR-5 ovarian", "result": "> 100", "unit": "µM"}, {"measurement": "TGI", "setting": "ACHN renal", "result": "> 100", "unit": "µM"}, {"measurement": "TGI", "setting": "CAKI-1 renal", "result": "> 100", "unit": "µM"}, {"measurement": "TGI", "setting": "A498 renal", "result": "> 100", "unit": "µM"}, {"measurement": "TGI", "setting": "UACC-62 melanoma", "result": "> 100", "unit": "µM"}, {"measurement": "TGI", "setting": "RPMI-8226 leukemia", "result": "> 100", "unit": "µM"}, {"measurement": "TGI", "setting": "MDA-MB-231 breast", "result": "> 100", "unit": "µM"}, {"measurement": "TGI", "setting": "NCI-H23 lung", "result": "> 100", "unit": "µM"}, {"measurement": "TGI", "setting": "KM12 colon", "result": "> 100", "unit": "µM"}, {"measurement": "TGI", "setting": "MCF7 breast", "result": "> 100", "unit": "µM"}, {"measurement": "TGI", "setting": "SR leukemia", "result": "> 100", "unit": "µM"}, {"measurement": "TGI", "setting": "HOP-92 NSCLC", "result": "> 100", "unit": "µM"}, {"measurement": "TGI", "setting": "COLO 205 colon", "result": "> 100", "unit": "µM"}, {"measurement": "TGI", "setting": "SK-MEL-2 melanoma", "result": "> 100", "unit": "µM"}, {"measurement": "TGI", "setting": "HOP-62 NSCLC", "result": "> 100", "unit": "µM"}, {"measurement": "TGI", "setting": "TK-10 renal", "result": "> 100", "unit": "µM"}, {"measurement": "TGI", "setting": "SF-539 CNS", "result": "> 100", "unit": "µM"}, {"measurement": "TGI", "setting": "786-0 renal", "result": "> 100", "unit": "µM"}, {"measurement": "TGI", "setting": "OVCAR-4 ovarian", "result": "> 100", "unit": "µM"}, {"measurement": "TGI", "setting": "MDA-MB-435", "result": "> 100", "unit": "µM"}, {"measurement": "TGI", "setting": "CCRF-CEM leukemia", "result": "> 100", "unit": "µM"}, {"measurement": "TGI", "setting": "M14 melanoma", "result": "> 100", "unit": "µM"}, {"measurement": "TGI", "setting": "SF-295 CNS", "result": "> 100", "unit": "µM"}, {"measurement": "TGI", "setting": "OVCAR-3 ovarian", "result": "> 100", "unit": "µM"}, {"measurement": "TGI", "setting": "MOLT-4 leukemia", "result": "> 100", "unit": "µM"}, {"measurement": "TGI", "setting": "HCT-15 colon", "result": "> 100", "unit": "µM"}, {"measurement": "TGI", "setting": "UO-31 renal", "result": "> 100", "unit": "µM"}, {"measurement": "TGI", "setting": "SK-MEL-28 melanoma", "result": "> 100", "unit": "µM"}, {"measurement": "TGI", "setting": "DU-145 prostate", "result": "> 100", "unit": "µM"}, {"measurement": "TGI", "setting": "RXF 393 renal", "result": "> 100", "unit": "µM"}, {"measurement": "TGI", "setting": "SNB-75 CNS", "result": "> 100", "unit": "µM"}, {"measurement": "TGI", "setting": "A549 NSCLC", "result": 95.5, "unit": "µM"}, {"measurement": "TGI", "setting": "HS 578T breast", "result": "> 100", "unit": "µM"}, {"measurement": "TGI", "setting": "HCT-116 colon", "result": "> 100", "unit": "µM"}, {"measurement": "TGI", "setting": "SK-MEL-5 melanoma", "result": "> 100", "unit": "µM"}, {"measurement": "TGI", "setting": "U251 CNS", "result": "> 100", "unit": "µM"}]}
